{
  "source": "the supplement of paper PMC10600219",
  "note": "Counter-ions that a name gives are not always drawn. The full ranking holds about 2,800 compounds; the median of “cell viability relative to vehicle” is about 1.1, and the lowest 2% start at about 0.19. The list shows a part of the results.",
  "data": [
    {"system": "NCI-H2228 parental", "test": "cell viability relative to vehicle (fraction of vehicle); NCI-H2228 is an ALK-positive lung cancer line and DTP means drug-tolerant persister; higher = less growth inhibition", "conditions": "100 nM; treatment time 6 days", "summary_of_the_method": "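NCI-H2228 parental cells and drug-tolerant persister cells were plated in 384-well plates; the persisters had been generated with 1000 nM of a targeted drug over 13 days. One day later, the 3114-agent TargetMol anti-cancer compound library was added at 100 nM, with DMSO serving as vehicle. ATP was measured 6 days after that using the CellTiter-Glo 3D Cell Viability Assay. Values are cell viability expressed relative to vehicle-treated cells.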", "values": [
      {"smiles": "O=C(O)Cc1ccccc1Nc1c(Cl)cccc1Cl", "note": "[Diclofenac sodium]", "cell viability": 1.21},
      {"smiles": "C[C@@H]1CC[C@@]2(NC1)O[C@H]1C[C@H]3[C@@H]4CC=C5C[C@@H](O[C@@H]6O[C@H](CO)[C@@H](O[C@@H]7O[C@@H](C)[C@H](O)[C@@H](O)[C@H]7O)[C@H](O)[C@H]6O[C@@H]6O[C@@H](C)[C@H](O)[C@@H](O)[C@H]6O)CC[C@]5(C)[C@H]4CC[C@]3(C)[C@H]1[C@@H]2C", "note": "[Solamargine]", "cell viability": 1.06},
      {"smiles": "CN(C)CCCNC(=O)c1ccc(-c2cc(O)c3ncccc3c2)cc1", "cell viability": 1.11},
      {"smiles": "CC(=O)Oc1cc(C(F)(F)F)ccc1C(=O)O", "note": "[Triflusal]", "cell viability": 1.22},
      {"smiles": "CC(C)C(=O)SCCCCCCC(=O)Nc1nc(-c2ccccc2)cs1", "cell viability": 0.967},
      {"smiles": "CNC(=O)c1ccccc1Oc1nc(Nc2cc(OC)c(OC)c(OC)c2)ncc1Br", "cell viability": 1.14},
      {"smiles": "O=c1ncn2nc(Sc3ccc(F)cc3F)ccc2c1-c1c(Cl)cccc1Cl", "note": "[Neflamapimod]", "cell viability": 1.14},
      {"smiles": "O=c1[nH]cc(F)c(=O)[nH]1", "note": "[Fluorouracil]", "cell viability": 0.981},
      {"smiles": "Cc1cncc(CN2CCC(=C3c4ccc(Cl)cc4CCc4cccnc43)CC2)c1", "note": "[Rupatadine Fumarate]", "cell viability": 1.14},
      {"smiles": "CCC(=O)O[C@H](CC(=O)O)C[N+](C)(C)C", "note": "[Propionyl-L-carnitine hydrochloride]", "cell viability": 1.04},
      {"smiles": "Nc1ccc(O)c(C(=O)O)c1", "note": "[Mesalamine]", "cell viability": 0.99},
      {"smiles": "Cc1cc(NC(=O)C2=C(O)c3ccccc3S(=O)(=O)N2C)no1", "note": "[Isoxicam]", "cell viability": 0.894},
      {"smiles": "O=C1NC(=O)/C(=C\\c2ccc3nccnc3c2)S1", "cell viability": 1.06},
      {"smiles": "COC(=O)N1CCN(Cc2cccc(NC(=O)Nc3ccc(C)nc3)c2F)CC1", "note": "[Omecamtiv mecarbil]", "cell viability": 1.08},
      {"smiles": "O=C(O)CSc1cc(NS(=O)(=O)c2ccc(Br)cc2)c2ccccc2c1O", "cell viability": 1.04},
      {"smiles": "CN(C)CCCN1c2ccccc2CCc2ccc(Cl)cc21", "note": "[Clomipramine hydrochloride]", "cell viability": 0.946},
      {"smiles": "O=c1[nH]c(=O)n([C@@H]2O[C@H](CO)[C@@H](O)[C@H]2O)cc1F", "note": "[5-Fluorouridine]", "cell viability": 0.425},
      {"smiles": "O=C(Nc1nc(-c2ccc(O)c(O)c2)c(-c2ccccc2)s1)c1ccc(O)c(O)c1", "cell viability": 1.07},
      {"smiles": "COC(=O)C1=C(C)NC(C)=C(C(=O)OC)C1c1ccccc1[N+](=O)[O-]", "note": "[Nifedipine]", "cell viability": 0.977},
      {"smiles": "COc1cc(N2CCN(C)CC2)ccc1Nc1nccc(-c2cn(C)c3cnccc23)n1", "cell viability": 1.02},
      {"smiles": "COc1cc2c(cc1O)CC[C@@H]1[C@@H]2CC[C@]2(C)[C@@H](O)CC[C@@H]12", "note": "[2-Methoxyestradiol]", "cell viability": 1.06},
      {"smiles": "COc1ccc(C(=O)N2CCN(c3ccc4c(c3)CCC(=O)N4)CC2)cc1OC", "note": "[Vesnarinone]", "cell viability": 1.01}
    ]}
  ]
}
